EPA's CvTdb concentration-time database
Further values from the same series stand in other lists.

Assays:
[1] = system: Rat; experiment: concentration in liver after dosing; details: 7416 h; dosed: 3,3',4,4',5-pentachlorobiphenyl; 1000 mg/kg; oral; Female; F344
[2] = system: Rat; experiment: concentration in liver after dosing; details: 24 h; dosed: 3,3',4,4',5-pentachlorobiphenyl; 1000 mg/kg; oral; Female; F344
[3] = system: Rat; experiment: concentration in liver after dosing; details: 7416 h; dosed: 3,3',4,4',5-pentachlorobiphenyl; 1000 mg/kg; oral; Male; F344
[4] = system: Rat; experiment: concentration in liver after dosing; details: 3984 h; dosed: 3,3',4,4',5-pentachlorobiphenyl; 1000 mg/kg; oral; Male; F344
[5] = system: Rat; experiment: concentration in liver after dosing; details: dosed: 3,3',4,4',5-pentachlorobiphenyl, 1000 mg/kg, oral
[6] = system: Rat; experiment: concentration in liver after dosing; details: 1464 h; dosed: 3,3',4,4',5-pentachlorobiphenyl; 1000 mg/kg; oral; Female; Harlan Sprague Dawley
[7] = system: Rat; experiment: concentration in liver after dosing; details: 2208 h; dosed: 3,3',4,4',5-pentachlorobiphenyl; 1000 mg/kg; oral; Female; Harlan Sprague Dawley
[8] = system: Rat; experiment: concentration in liver after dosing; details: 16 h; dosed: 3,3',4,4',5-pentachlorobiphenyl; 1000 mg/kg; oral; Female; F344
[9] = system: Rat; experiment: concentration in liver after dosing; details: 1.5 h; dosed: 3,3',4,4',5-pentachlorobiphenyl; 1000 mg/kg; oral; Female; F344
[10] = system: Rat; experiment: concentration in liver after dosing; details: 120 h; dosed: 3,3',4,4',5-pentachlorobiphenyl; 1000 mg/kg; oral; Female; Harlan Sprague Dawley
[11] = system: Rat; experiment: concentration in liver after dosing; details: 8 h; dosed: 3,3',4,4',5-pentachlorobiphenyl; 1000 mg/kg; oral; Female; F344
[12] = system: Rat; experiment: concentration in liver after dosing; details: 8 h; dosed: 3,3',4,4',5-pentachlorobiphenyl; 1000 mg/kg; oral; Female; F344; remark: listed apart in the source
[13] = system: Rat; experiment: concentration in liver after dosing; details: 2880 h; dosed: 3,3',4,4',5-pentachlorobiphenyl; 1000 mg/kg; oral; Female; Harlan Sprague Dawley
[14] = system: Rat; experiment: concentration in liver after dosing; details: 24 h; dosed: 3,3',4,4',5-pentachlorobiphenyl; 1000 mg/kg; oral; Female; F344; remark: listed apart in the source
[15] = system: Rat; experiment: concentration in plasma after dosing; details: 8184 h; dosed: 3,3',4,4',5-pentachlorobiphenyl; 1000 mg/kg; oral; Male; Harlan Sprague Dawley
[16] = system: Rat; experiment: concentration in plasma after dosing; details: 1.5 h; dosed: alpha/beta-Thujone mixture; 25 mg/kg; oral; Female; F344
[17] = system: Rat; experiment: concentration in brain after dosing; details: 0.5 h; dosed: 76231-76-0; 3.0 mg/kg; iv; Female; F344
[18] = system: Rat; experiment: concentration in plasma after dosing; details: 1 h; dosed: 76231-76-0; 3.0 mg/kg; iv; Male; F344
[19] = system: Rat; experiment: concentration in plasma after dosing; details: 10 min; dosed: 76231-76-0; 3.0 mg/kg; iv; Female; F344
[20] = system: Rat; experiment: concentration in plasma after dosing; details: 6 h; dosed: alpha/beta-Thujone mixture; 50 mg/kg; oral; Female; F344
[21] = system: Rat; experiment: concentration in plasma after dosing; details: 6 h; dosed: alpha/beta-Thujone mixture; 50 mg/kg; oral; Male; F344
[22] = system: Rat; experiment: concentration in plasma after dosing; details: 6 h; dosed: alpha/beta-Thujone mixture; 25 mg/kg; oral; Male; F344
[23] = system: Rat; experiment: concentration in plasma after dosing; details: 8 h; dosed: 76231-76-0; 3.0 mg/kg; iv; Male; F344
[24] = system: Rat; experiment: concentration in brain after dosing; details: 1.5 h; dosed: 76231-76-0; 3.0 mg/kg; iv; Female; F344
[25] = system: Rat; experiment: concentration in brain after dosing; details: 6 h; dosed: alpha/beta-Thujone mixture; 50 mg/kg; oral; Female; F344
[26] = system: Rat; experiment: concentration in plasma after dosing; details: 10 min; dosed: alpha/beta-Thujone mixture; 50 mg/kg; oral; Male; F344
[27] = system: Rat; experiment: concentration in plasma after dosing; details: 0.5 h; dosed: alpha/beta-Thujone mixture; 25 mg/kg; oral; Male; F344
[28] = system: Rat; experiment: concentration in brain after dosing; details: 6 h; dosed: alpha/beta-Thujone mixture; 25 mg/kg; oral; Female; F344
[29] = system: Rat; experiment: concentration in plasma after dosing; details: 10 min; dosed: alpha/beta-Thujone mixture; 25 mg/kg; oral; Female; F344
[30] = system: Rat; experiment: concentration in brain after dosing; details: 5 min; dosed: alpha/beta-Thujone mixture; 25 mg/kg; oral; Female; F344
[31] = system: Rat; experiment: concentration in brain after dosing; details: 2 min; dosed: alpha/beta-Thujone mixture; 50 mg/kg; oral; Male; F344
[32] = system: Rat; experiment: concentration in brain after dosing; details: 3 h; dosed: alpha/beta-Thujone mixture; 25 mg/kg; oral; Female; F344
[33] = system: Rat; experiment: concentration in brain after dosing; details: 10 min; dosed: alpha/beta-Thujone mixture; 50 mg/kg; oral; Female; F344
[34] = system: Rat; experiment: concentration in brain after dosing; details: 3 h; dosed: alpha/beta-Thujone mixture; 25 mg/kg; oral; Female; F344; remark: listed apart in the source

Clc1ccc(-c2cc(Cl)c(Cl)c(Cl)c2)cc1Cl [3,3',4,4',5-pentachlorobiphenyl]
Details	concentration in liver [pg/g]	concentration in plasma [ng/mL]
[1]	575	–
[2]	18300	–
[3]	975	–
[4]	2230	–
[6]	4340	–
[7]	4040	–
[8]	17600	–
[9]	3280	–
[10]	9040	–
[11]	19000	–
[12]	18400	–
[13]	4090	–
[14]	15300	–
[15]	–	0.111

concentration in liver [pg/g], [5]
Details	Female	Male
1 h, F344	767	–
1.5 h, F344	1780	–
2 h, F344	2670	–
3 h, F344	12200	–
8 h, F344	12900	–
16 h, F344	22000	–
24 h, F344	20100	–
120 h, Harlan Sprague Dawley	12000	–
288 h, Harlan Sprague Dawley	8010	–
768 h, Harlan Sprague Dawley	6650	–
1464 h, Harlan Sprague Dawley	2190	–
2208 h, Harlan Sprague Dawley	2020	–
2880 h, Harlan Sprague Dawley	3060	–
3984 h, F344	1530	2200
5088 h, F344	1590	–
6000 h, F344	849	–
6000 h, Harlan Sprague Dawley	1450	–
6744 h, Harlan Sprague Dawley	562	–
7416 h, F344	465	416
7416 h, Harlan Sprague Dawley	–	659
8184 h, F344	654	–
8184 h, Harlan Sprague Dawley	–	382
8760 h, Harlan Sprague Dawley	–	676

CC(C)[C@]12CC(=O)[C@H](C)[C@H]1C2 [alpha-Thujone]
Details	concentration in brain [ng/g]	concentration in plasma [ng/mL]
[16]	–	136
[17]	348	–
[18]	–	79.5
[19]	–	357
[20]	–	251
[21]	–	114
[22]	–	72.1
[23]	–	11.8
[24]	52	–
[25]	897	–
[26]	–	550
[27]	–	291
[28]	91.8	–
[29]	–	843
[30]	597	–
[31]	869	–
[32]	334	–
[33]	2770	–
[34]	172	–
